Results published in PubChem BioAssay AID1346428 (National Center for Advancing Translational Sciences (NCATS), 2018).
Among all 48,000 compounds or so, about 1,200 (2.5%) were called active. Not shown: some 2% with an inconclusive outcome.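 The calls were made as follows: active = activation of at least 60% and not above a set upper limit (about 1 call in 100 departs from these limits); inconclusive = activation of 40% to 60%, or above that upper limit; inactive = activation under 40%.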 The list shows a part of the results.

Each compound was assayed against Probable G-protein coupled receptor 32 (Homo sapiens) (UniProt O75388) (assay: qHTS for Agonists of Human Resolvin D1 Receptor DRV1). Conditions: CHO-K1 GPR32 beta-arrestin PathHunter luminescence, 90 min; at 76.9 µM; active compounds read high; zero percent set by DMSO-only wells.
Excerpt: Endogenous resolution of inflammation is known to be transduced through various GPCRs and their natural mediators of lipid nature. Resolvin D1 (RvD1) is one of the active players in resolution of acute inflammation through regulation of anti-inflammatory pathways; it is known to enhance phagocytosis of human macrophages, limits neutrophils infiltration, etc. […] The search for GPR32-activating small molecules with anti-inflammatory effects similar to its natural omega-3 derivative ligand in order to use them as research tools for further studies of inflammation and its resolution was the goal of this screening project. For primary screening assay, we used CHO-K1 GPR32 beta-arrestin cell line (DiscoveRx, #93-0321C2A) and the PathHunter(R) beta-Arrestin Assay (DiscoveRx) which measures recruitment of beta-arrestin to the GPR32 and generates chemiluminescent signal. These engineered cells stably transfected with GPR32 co-express GPR32-fused small 42-amino acid fragment of beta-Gal called ProLinktrade mark, and […] -tagged beta-Arrestin fusion protein. When GPR32 is activated by a ligand, it stimulates binding of beta -Arrestin to ProLink-tagged GPR32, and two parts of beta-Gal complement forming a functional enzyme. Upon substrate (PathHunter(R) Detection reagent) addition, beta-Gal hydrolyzes it and generates a chemiluminescent signal.
The cells were thawed and plated in thawing media containing F-12 HAM (Invitrogen, #11765-054), 10% FBS (Invitrogen, #10082), 1x Glutamine, and 1x Pen/Strep onto the 175-mm flask for 24 hours. Then, thawing media was replaced with Growth media which contains 800microg/mL Geneticin (Invitrogen, #10131) and 300microg/mL Hygromycin B (Invitrogen, #10687) in addition to described above. For the assay, the cells were harvested at ~80% confluent stage with Cell Dissociation buffer (Gibco, #13151), and seeded at 2,500 cells/ 3microL/well in assay media (PathHunter(R) Cell Plating Reagent, DiscoverX, #93-0563R1B) using MultiDrop Combi dispenser (Thermo Scientific, Logan, UT) onto white solid bottom tissue culture-treated 1536-well plates (Greiner # 789173-F) and allowed to attach overnight at 37 degrees C, 95% humidity, 5% CO2, . Next, 23nL/well of compound solutions in DMSO were added with a Pin Tool (Kalypsis, San Diego, CA) to the assay plates. As the basal control (EC0), 23 nL/well of DMSO was used on each plate. The cells were incubated in the presence of compounds or DMSO for 90 minutes at 37 degrees C, 5% CO2. Subsequently, 1.5microL/well of PathHunter(R) Detection Reagent prepared per the manufacturer's instructions was added to the assay plates with BioRAPTR FRDtrade mark dispenser (Beckman Coulter, San Francisco, CA) and incubated for 1 hour at ambient temperature prior to the measurement of the luminescent signal on ViewLux(R) uHTS Microplate Imager (Perkin Elmer, Waltham, MA).

Chain of UniProt O75388 (O75388 whole entry, looked up): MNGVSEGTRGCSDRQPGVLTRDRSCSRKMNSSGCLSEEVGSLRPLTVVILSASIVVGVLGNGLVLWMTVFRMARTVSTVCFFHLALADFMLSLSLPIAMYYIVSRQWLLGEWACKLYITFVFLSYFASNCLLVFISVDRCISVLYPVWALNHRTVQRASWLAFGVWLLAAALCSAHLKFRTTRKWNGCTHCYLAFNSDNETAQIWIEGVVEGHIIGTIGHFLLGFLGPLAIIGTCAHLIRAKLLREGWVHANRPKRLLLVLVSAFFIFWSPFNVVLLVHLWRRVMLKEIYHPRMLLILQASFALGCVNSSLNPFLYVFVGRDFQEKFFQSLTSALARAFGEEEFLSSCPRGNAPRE

activation, inactive:
O=C(Nc1nc2ccc(S(=O)(=O)N3CCCC3)cc2s1)c1cccc(F)c1 -21.2%, Cc1cc(C)cc(-n2ccnc2SCC(=O)Nc2nnc(C)s2)c1 20.6%, CCOC(=O)c1sc2ncn(CC(=O)Nc3ccc(N(C)C)cc3)c(=O)c2c1C -6.04%, CCOc1ccc2nc(N3CCCC(C(=O)Nc4c(C)cccc4C)C3)sc2c1 (centres undefined) -7.56%, CCS(=O)(=O)N1CCc2cc(C(=O)Nc3ccc(OC)c(Cl)c3)ccc21 12.3%, CCCCn1cc(S(=O)(=O)c2ccc(C)c(C)c2)c(=O)c2cc(F)c(N3CCCC(C)C3)cc21 (centres undefined) -4.09%, COc1ccc(OC)c(CNC(=O)c2nn(-c3ccc(OC)c(Cl)c3)c(=O)c3c2c2ccccc2n3C)c1 10.8%, CCOc1cc(C(=O)N2CC(=O)Nc3ccc(C)cc3C2c2ccccc2)cc(OCC)c1OCC (centres undefined) -1.79%, Cc1nnc(SCc2ccccc2)c2cc3sccc3n12 -24.3%, O=S(=O)(Nc1cccc(-c2ccc(N3CCCC3)nn2)c1)c1ccccc1C(F)(F)F 13.7%, COCCCNC(=O)CSC1=Nc2ccccc2C2=NC(CCC(=O)NCc3ccccc3OC)C(=O)N12 (centres undefined) -26.6%, COc1ccc(N2CCN(c3oc(/C=C/c4ccc(F)cc4)nc3C#N)CC2)cc1 -19.4%, CCc1ccc(CN(Cc2ccco2)C(=O)c2ccc(OC)cc2)cc1 -8.03%, COC(=O)c1cccnc1 1.15%, CCc1ccc(CNC(=O)CCC(=O)N2Cc3cccc(OC)c3Oc3ncccc32)cc1 -6.92%, Cc1cc(C)cc(OC(C)C(=O)Nc2nonc2-c2ccc(Br)cc2)c1 (centres undefined) -7.9%, O=C(Nc1cccc(C(=O)OCc2cc(=O)n3nc(C4CC4)sc3n2)c1)c1ccccc1 -2.56%, Cc1ccc(Cl)cc1N(C)C(=O)Cn1nc(Cc2cccnc2)c2ccccc2c1=O -65.4%, Nc1c(-c2nc(-c3cccs3)no2)nnn1-c1ccccc1Cl -4.02%, CCOc1cccc(CNC(=O)c2ccc(N3CCCC3)c(NC(=O)NCc3ccc(F)cc3)c2)c1 -22%, O=C(NCc1ccco1)C1CCN(C(=O)N2CCOc3ccccc32)CC1 -3.83%, O=[N+]([O-])c1ccc(-c2nc(-c3ccc(F)cc3)c(-c3ccncc3)[nH]2)cc1 -17.5%, Cc1ccccc1NC(=O)CSc1nnc(C)c(=O)[nH]1 -3.99%, Cc1ccccc1CS(=O)(=O)CC1Nc2ccc(C(=O)NCc3ccc(Cl)cc3)cc2NC1=O (centres undefined) -17.6%
